For this test, the system named is DUSP6 mRNA in Capan-2 xenograft tumors. Nature of the test: In vivo PD by DUSP6 qPCR and PK/PD relationship. Further details: species or system mouse. As for the experimental part: Tumor-bearing animals were randomized and assigned into groups (n = 1–10/group). The vehicle at 10 mL/kg or RMC-6236 at indicated doses was administered via oral gavage daily, and animals were treated for 28 days, or up to 90 days if PFS was being assessed. […] For single-dose PKPD study, mice were randomized and assigned into groups (n = 3/dose/time point). A single dose of RMC-6236 was administered orally at either 3, 10, or 25 mg/kg. Blood and tissues, including the tumor, brain, colon, ear skin, and muscle, were harvested at indicated time points. Whole blood was collected in K2EDTA Microtainer tubes, incubated for 5 minutes, and snap-frozen in liquid nitrogen. The tissue was either fixed in 10% formalin or snap-frozen in liquid nitrogen for further analysis.
RNA was extracted from at least 20 mg of tissue using an RNeasy Mini Kit (Qiagen, 74104) and a High-Throughput Tissue grinder following the manufacturer's protocol. Reverse transcription was carried out using High-Capacity cDNA Reverse Transcription Kit (ABI, 4368814) according to the manufacturer's protocol. The cDNA product was used for qPCR analysis using TaqMan Gene-Expression Master Mix (ABI, 4369016). TaqMan primer probes specific to DUSP6 (human—Hs00737962_m1, murine—Mm00518185_m1, FAM-MGB) and 18S (RNA18S1; human—Hs99999901_s1, murine—Mm03928990_g1, FAM-MGB, used as an internal control gene) were used to detect the levels from each sample in duplicates using a 10 µL final reaction volume in a 384-well clear optical reaction plate. For qPCR, Ct values of DUSP6 and 18S were obtained for analysis. DUSP6 Ct value was normalized to 18S, and then the mean relative mRNA expression levels of each group were normalized to the vehicle control group. Values were plotted as relative change in mRNA expression compared with vehicle. Means ± SEM were shown.
Concentrations of RMC-6236 in tumor or normal tissues and percentage of DUSP6 inhibition as compared with the vehicle control from individual animals were collected and analyzed post a single dose of RMC-6236 ranging from 0.3 to 100 mg/kg (Supplementary Table S6). A 3-parameter sigmoidal exposure–response model was fitted to the data in GraphPad Prism to derive EC50 and EC90 values.
(In qPCR the cycle at which signal appears reflects the starting amount.)

One compound from publication PMC11149917, “Translational and Therapeutic Evaluation of RAS-GTP Inhibition by RMC-6236 in RAS-Driven Cancers” (Cancer Discovery, 2024) can be followed below.

Values joined by “and” are separate entries in the source; they are usually repeats but may differ in a detail not shown here. Equal entries are not always repeated. The source gives many values for each of these; only a part stands here.

Consider `CCn1c(-c2cc(N3CCN(C)CC3)cnc2[C@H](C)OC)c2c3cc(ccc31)-c1csc(n1)C[C@H](NC(=O)[C@H]1C[C@@H]1C)C(=O)N1CCC[C@H](N1)C(=O)OCC(C)(C)C2` [RMC-6236], for which the “% inhibition of DUSP6 vs control” value is 92.6008% (Capan-2, study Capan-2 #3_PHA 2020, 10 mg/kg, 24h); 93.234% and 85.4464% and 92.7985% (Capan-2, study Capan-2 #3_PHA 2023, 3 mg/kg, 8h); 98.5776% and 98.8039% and 97.1847% (Capan-2, study Capan-2 #3_PHA 2023, 10 mg/kg, 8h); 99.4323% and 98.6775% and 98.783% (Capan-2, study Capan-2 #3_PHA 2023, 25 mg/kg, 8h); 98.6308% and 99.0149% and 99.3364% (Capan-2, study Capan-2 #3_PHA 2023, 50 mg/kg, 8h); 99.0285% (Capan-2, study Capan-2 #3_PHA 2023, 100 mg/kg, 8h).
